# The whole screen tested about 360,000 compounds, of which about 520 (0.14%) were called active. Inconclusive results, whose numbers are uncertain, are shown with a selection of clear calls. Calls follow the shape of the dose curve; as a rule, active = well fitted inhibition curve with a large enough effect; inconclusive = small, poorly fitted or top-dose-only effect; inactive = no such curve, though single readings can be large or run the other way. No potency is given beside an inconclusive call; the fits are too rough.
# Biological target: Rap guanine nucleotide exchange factor 3 (Homo sapiens) (UniProt O95398)
# Experiment: qHTS for Antagonist of cAMP-regulated guanine nucleotide exchange factor 3 (EPAC1): primary screen; also: nearly all actives have a fitted effect of over 50% in size;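 as to activity change, negative = inhibition: plate controls were vehicle for no effect and positive control for full effect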
# Settings: EPAC1 GEF assay, Rap1b-BODIPY-GDP exchange fluorescence; activity change, negative = inhibition: at 115 µM (top of the series)
# Potency is read from the fitted curve at half-maximal effect; tags tell the direction and shape of the fitted curve.
# UniProt O95398, sequence (O95398 whole entry, looked up): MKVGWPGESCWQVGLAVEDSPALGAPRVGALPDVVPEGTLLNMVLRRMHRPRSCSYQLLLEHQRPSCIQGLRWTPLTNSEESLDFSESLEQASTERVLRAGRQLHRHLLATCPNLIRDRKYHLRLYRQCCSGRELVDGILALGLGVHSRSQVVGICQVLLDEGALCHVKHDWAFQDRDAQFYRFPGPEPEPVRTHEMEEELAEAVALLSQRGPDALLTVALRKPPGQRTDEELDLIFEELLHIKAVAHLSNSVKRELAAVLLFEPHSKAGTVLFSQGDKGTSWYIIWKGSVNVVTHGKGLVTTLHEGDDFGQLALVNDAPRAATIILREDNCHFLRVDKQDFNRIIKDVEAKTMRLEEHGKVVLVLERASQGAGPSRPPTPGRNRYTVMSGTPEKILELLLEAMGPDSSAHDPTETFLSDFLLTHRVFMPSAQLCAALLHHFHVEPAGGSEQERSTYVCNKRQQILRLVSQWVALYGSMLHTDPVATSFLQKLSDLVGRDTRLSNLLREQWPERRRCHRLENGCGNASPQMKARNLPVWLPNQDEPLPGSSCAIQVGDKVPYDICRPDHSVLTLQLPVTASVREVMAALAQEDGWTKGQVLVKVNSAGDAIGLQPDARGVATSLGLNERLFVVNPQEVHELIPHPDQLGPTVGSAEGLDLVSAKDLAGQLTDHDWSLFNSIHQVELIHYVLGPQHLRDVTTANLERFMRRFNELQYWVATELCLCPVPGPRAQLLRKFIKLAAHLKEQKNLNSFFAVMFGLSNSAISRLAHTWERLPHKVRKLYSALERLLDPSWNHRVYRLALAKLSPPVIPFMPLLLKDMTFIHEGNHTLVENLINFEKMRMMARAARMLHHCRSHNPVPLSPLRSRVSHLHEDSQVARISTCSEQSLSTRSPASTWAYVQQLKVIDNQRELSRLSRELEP
Structure (SMILES),Potency,"activity change, negative = inhibition"
CC1(C(=O)NS(=O)(=O)C2CC2)CCCN(C(=O)c2cccc(OC(F)(F)F)c2)C1 (stereo not given),"inconclusive [inhibitor, single point]",–
COc1cccc(CSc2nc3ccccc3cc2C=O)c1,"inconclusive [inhibitor, single point]",–
COC1=C(N)C(=O)c2nc(C)ccc2C1=O,inactive,–
COc1ccc(/C=N\NC(=O)c2cc(O)c(O)c(O)c2)cc1COc1ccc(C(=O)OCC(C)C)cc1,"inconclusive [inhibitor, partial curve]",–
CCN(CC)CC(=O)Nc1sc2c(c1C(=O)c1ccccc1C)CCC2,"inconclusive [inhibitor, partial curve]",–
Cn1nnc(NC(=S)NC(=O)c2cc3ccccc3o2)n1,inactive,–
COc1ccc(-c2cc(C(=O)NNC(=O)c3csc(N4CCOCC4)n3)c3ccccc3n2)cc1,"inconclusive [inhibitor, full curve]",–
C=CCNC(=S)NC(=O)c1ccc(C)c(Br)c1,inactive,–
CC(=O)/C(=N\Nc1ccccc1)Sc1cccc2cccnc12,"inconclusive [inhibitor, full curve, poor fit]",–
COC1CCCN(Cc2cn(C)nc2-c2ccc(Oc3ccccc3)cc2)C1 (stereo not given),"inconclusive [inhibitor, partial curve]",–
COc1ccc2c(CC(=O)OCC(=O)Nc3cccc(C)c3)coc2c1,"inconclusive [inhibitor, single point]",–
CSc1nsc2nc(=O)c(/C=C3\C=Nc4ccccc43)c(N)n12,"inconclusive [inhibitor, single point]",–
Cc1ccc(OCC(=O)Nc2cc(NC(=O)COc3ccc(C)c(C)c3)cc(C(=O)O)c2)cc1C,"inconclusive [inhibitor, partial curve]",–
CCn1c(COc2ccc(OC)cc2)nc2ccccc21,"inconclusive [inhibitor, single point]",–
COc1ccc(-c2csc(N(C)C(=O)c3ccco3)n2)cc1,"inconclusive [inhibitor, single point]",–
C/C(=N\Nc1ccc(Cl)c(C(=O)O)c1)c1cccc([N+](=O)[O-])c1,inactive,–
O=C(NCc1cc(C(F)(F)F)ccc1Cl)c1cccc2c1C(=O)c1ccc(N3CCC(N4CCCCC4)CC3)cc1S2(=O)=O,"inconclusive [inhibitor, single point]",–
CCOc1ccc(OCc2ccc(C(=O)Nc3cccnc3)o2)cc1,inactive,–
CC(=O)Nc1cccc(-c2ccnc3c2CC(C(=O)Nc2ccc(Cl)cc2)O3)c1 (stereo not given),inactive,–
CCCCCCCCNC(=S)NCCN1CCCCC1,–,inconclusive: -12.2% [inhibitor]
O=C(c1cc(-c2ccncc2)nc2ccc(Cl)cc12)N1CCN(Cc2ccc3c(c2)OCO3)CC1,"inconclusive [inhibitor, partial curve]",–
O=c1[nH]c(Nc2ccccc2Cl)cc2ccccc12,inactive,–
COc1ccc(OC)c2cc3ccccc3cc12,"inconclusive [inhibitor, partial curve]",–
CC(C)(C)C1=CC(=O)C(N2CCOCC2)=CC1=O,inactive,–

Structure (SMILES),Potency,"activity change, negative = inhibition"
CC(C)=CC(=O)Nc1nnc(-c2ccccc2C)s1,inactive,–
O=S(=O)(/C=C/C=C/S(=O)(=O)c1ccccc1)c1ccccc1,"inconclusive [inhibitor, partial curve, poor fit]",–
O=C(O)CSc1nnc(COc2ccc([N+](=O)[O-])cc2)n1-c1ccccc1,"inconclusive [inhibitor, single point]",–
Cc1ccc(N2CCN(S(=O)(=O)c3ccc(F)c(C)c3)CC2)c(C)c1,inactive,–
CC(C)(C)c1ccc(N=C2SCC(=O)N2Cc2cccs2)cc1,"inconclusive [inhibitor, partial curve, poor fit]",–
Cc1cccc(N=C2NC(=O)/C(=C/C=C/c3ccco3)S2)c1,"inconclusive [inhibitor, single point]",–
CCOc1ccc(C(=O)NC(C(=O)NCC2CCCO2)C(C)C)cc1 (stereo not given),"inconclusive [inhibitor, single point]",–
Nc1c(C(=O)NCc2ccco2)c2nc3ccccc3nc2n1CCc1ccc(F)cc1,"inconclusive [inhibitor, partial curve]",–
CCOC(=O)c1c(C)sc2c1N(C(=O)CN1CCOCC1)c1cc(Cl)ccc1S2,"inconclusive [inhibitor, full curve, poor fit]",–
CNc1nc(NCc2cccc(OC)c2)c2sccc2n1,"inconclusive [inhibitor, partial curve]",–
COc1cccc(NC(=S)NNC(=O)Cn2nc(C(F)F)cc2C(F)F)c1,"inconclusive [inhibitor, partial curve]",–
COc1ccccc1N(C)S(=O)(=O)c1ccc(C(=O)NCc2ccc3c(c2)OCO3)cc1,inactive,–
O=C(Nc1ccc2c(c1)C(=O)c1ccccc1-2)c1ccccc1,inactive,–
CC(C)Cc1csc(NC(=O)c2ccc(Cl)cc2)c1C(=O)O,active: 17.8 µM,–
O=C(N/N=C/c1c(F)cccc1Cl)C1CC1,inactive,–
CCOC(=O)c1ccc(NC(=O)c2cc(S(=O)(=O)N3CCOCC3)cn2C)cc1,–,inconclusive: -15.7% [inhibitor]
Cc1ccc(OC(=S)Nc2ccc(F)cc2)cc1,"inconclusive [inhibitor, partial curve]",–
O=C1NN(c2cccc(Br)c2)C(=O)/C1=C\c1ccc(O)cc1,inactive,–
Cc1cc(SCC(=O)N/N=C/c2ccc(O)c(O)c2O)c(C)cc1Br,"inconclusive [inhibitor, single point]",–
O=C(Oc1ccccc1/C=C\C(=O)c1cc2ccccc2o1)c1ccccc1,inactive,–
COc1cc(/C=C/C(=O)OCC(=O)c2c(N)n(C)c(=O)n(C)c2=O)ccc1OC(F)F,"inconclusive [inhibitor, single point]",–
COc1cc(Cl)c(CN2CCCC(CO)(Cc3ccccc3F)C2)cc1OC (stereo not given),"inconclusive [inhibitor, single point]",–
CC(C)Cc1cc(C(=O)NCc2cccs2)no1,inactive,–
Cc1ccc(NC(=O)CN2C(=O)N/C(=C/c3ccccc3OCc3cccc(C(=O)O)c3)C2=O)cc1,"inconclusive [inhibitor, partial curve]",–

Structure (SMILES),Potency,"activity change, negative = inhibition"
CCn1c(/C=N/Nc2ccc(C(=O)O)cc2)nc2ccccc21,"inconclusive [inhibitor, partial curve]",–
COc1ccc(OC)c2[nH]c(=O)c(CCNC(=O)C(=O)c3c[nH]c4ccccc34)cc12,"inconclusive [inhibitor, partial curve]",–
O=C(N/N=C/c1ccc(Cl)cc1Cl)c1ccc2nc[nH]c2c1,"inconclusive [inhibitor, partial curve, poor fit]",–
CN1c2ccsc2/C(=N/Nc2ccccc2)CS1(=O)=O,"inconclusive [inhibitor, partial curve]",–
O=C(NCCc1cccs1)Nc1nnc([C@H]2C[C@H](O)[C@@H](CO)O2)s1,inactive,–
CCOc1cc(CNc2ccc3c(c2)CCC3)ccc1O,inactive,–
CCCCn1c(=NC(=O)c2cccnc2)c(C(=O)OCC)cc2c(=O)n3ccccc3nc21,"inconclusive [inhibitor, partial curve]",–
CSc1nc(N(CCO)CCO)c2sc3nc(-c4ccco4)c4c(c3c2n1)CCC4,"inconclusive [inhibitor, full curve]",–
Cc1ccc(N(C(=O)CCC(=O)Nc2ccccn2)C(C(=O)NC(C)C)c2ccc(F)cc2)cc1 (stereo not given),"inconclusive [inhibitor, full curve]",–
CC[n+]1ccc(C)c2cc(P(=O)(c3ccccc3)c3ccccc3)ccc21,"inconclusive [inhibitor, full curve, poor fit]",–
C/C(=N\NC(=O)c1nnn(-c2nonc2N)c1C(C)C)c1cc(C)sc1C,"inconclusive [inhibitor, partial curve]",–
Cc1cc(C)c(NC(=O)CSc2nnc(CNC(=O)c3ccco3)o2)c(C)c1,"inconclusive [inhibitor, single point]",–
CCc1cc2c(CN3CCN(Cc4ccccc4)CC3)cc(=O)oc2cc1O,inactive,–
O=C(NCC(c1ccco1)N1CCN(c2ccccc2)CC1)C1CCCCC1 (stereo not given),inactive,–
COc1cc(/C=C2/C(=O)NN(c3cccc(C)c3)C2=O)ccc1OC(=O)c1ccco1,inactive,–
COc1ccc(-c2[nH]c(-c3ccccc3)nc2SCC(=O)Nc2nccs2)cc1,"inconclusive [inhibitor, partial curve]",–
N=C1/C(=C/c2coc3ccccc3c2=O)C(=O)N=C2SC(c3ccco3)=NN12,inactive,–
O=C(C1=C[C@@H](c2ccc(C(F)(F)F)cc2)C[C@@H](OCCCCO)O1)N1CCN(Cc2ccccc2)CC1,"inconclusive [inhibitor, partial curve]",–
Cc1ccc(C)c2[nH]c(=O)c(C(c3nnnn3Cc3ccco3)N3CCc4ccccc4C3)cc12 (stereo not given),inactive,–
CCC(C)NC(=O)CS(=O)Cc1nc(-c2ccccc2C)oc1C (stereo not given),"inconclusive [inhibitor, single point]",–
COCCNC(=O)C(c1ccc(Cl)cc1)N(C(=O)CCC(=O)Nc1ccccn1)C1CCCC1 (stereo not given),inactive,–
C[C@@H]1CN([C@H](C)CO)S(=O)(=O)c2ccc(Br)cc2O[C@H]1CN(C)C(=O)Nc1ccccc1,inactive,–
